Assay results as given in article PMC10217940.
These are yes or no findings as the source states them, for the method shown. In cells and extracts the contact can be indirect. Some binding calls cover weakened binding; strength is not graded here. Sequences can lack the tags named with a protein.

T1: IMPβ1 fused to Luc^N (Arabidopsis) (UniProt Q9FJD4)
T1 sequence: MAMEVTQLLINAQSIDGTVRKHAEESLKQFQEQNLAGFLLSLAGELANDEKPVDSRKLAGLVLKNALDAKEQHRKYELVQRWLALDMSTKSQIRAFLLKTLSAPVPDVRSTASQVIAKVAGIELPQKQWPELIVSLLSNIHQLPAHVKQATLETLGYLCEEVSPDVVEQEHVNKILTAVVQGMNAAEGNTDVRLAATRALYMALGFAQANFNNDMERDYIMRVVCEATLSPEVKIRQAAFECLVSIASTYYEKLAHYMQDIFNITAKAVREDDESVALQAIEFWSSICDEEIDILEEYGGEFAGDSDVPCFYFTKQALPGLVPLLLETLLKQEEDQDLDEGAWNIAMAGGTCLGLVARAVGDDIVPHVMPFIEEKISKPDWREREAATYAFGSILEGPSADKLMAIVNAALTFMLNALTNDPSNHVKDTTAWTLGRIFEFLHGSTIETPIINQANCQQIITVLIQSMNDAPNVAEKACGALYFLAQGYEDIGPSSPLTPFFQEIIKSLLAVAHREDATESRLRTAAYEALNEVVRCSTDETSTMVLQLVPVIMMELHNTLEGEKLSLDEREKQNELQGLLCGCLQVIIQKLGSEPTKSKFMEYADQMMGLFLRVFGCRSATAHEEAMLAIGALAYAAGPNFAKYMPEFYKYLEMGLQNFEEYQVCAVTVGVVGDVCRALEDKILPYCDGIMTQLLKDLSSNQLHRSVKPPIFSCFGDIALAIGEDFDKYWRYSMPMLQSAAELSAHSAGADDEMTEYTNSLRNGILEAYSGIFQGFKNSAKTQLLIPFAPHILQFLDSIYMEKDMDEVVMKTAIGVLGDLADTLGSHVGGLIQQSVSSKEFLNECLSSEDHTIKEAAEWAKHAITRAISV

T2: IMPβ1:YFP^N fusion protein (Arabidopsis) (UniProt Q9FJD4)
T2 sequence: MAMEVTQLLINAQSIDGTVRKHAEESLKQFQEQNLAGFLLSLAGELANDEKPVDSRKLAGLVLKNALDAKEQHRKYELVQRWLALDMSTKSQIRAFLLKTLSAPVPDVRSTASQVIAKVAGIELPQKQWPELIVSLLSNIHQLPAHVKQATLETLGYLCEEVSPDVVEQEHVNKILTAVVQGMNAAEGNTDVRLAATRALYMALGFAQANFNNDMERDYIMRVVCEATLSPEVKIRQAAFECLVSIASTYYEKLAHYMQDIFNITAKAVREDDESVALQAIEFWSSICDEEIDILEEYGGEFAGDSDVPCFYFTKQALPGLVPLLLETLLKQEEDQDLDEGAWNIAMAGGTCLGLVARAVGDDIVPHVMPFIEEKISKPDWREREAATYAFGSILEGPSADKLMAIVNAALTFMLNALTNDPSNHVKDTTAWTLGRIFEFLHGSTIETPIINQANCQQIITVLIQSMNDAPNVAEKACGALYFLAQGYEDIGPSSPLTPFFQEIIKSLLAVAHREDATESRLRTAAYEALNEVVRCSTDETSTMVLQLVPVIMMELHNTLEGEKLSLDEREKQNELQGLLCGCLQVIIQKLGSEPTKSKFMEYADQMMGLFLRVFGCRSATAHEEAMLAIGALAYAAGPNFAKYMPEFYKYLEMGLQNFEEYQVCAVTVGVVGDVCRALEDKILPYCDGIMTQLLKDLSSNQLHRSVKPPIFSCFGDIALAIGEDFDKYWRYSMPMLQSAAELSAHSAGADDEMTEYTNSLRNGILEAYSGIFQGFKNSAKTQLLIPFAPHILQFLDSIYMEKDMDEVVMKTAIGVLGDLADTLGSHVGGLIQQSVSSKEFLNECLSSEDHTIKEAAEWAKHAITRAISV


Legend:
[1] = molecular target: T1, IMPβ1 fused to Luc^N (Arabidopsis); experiment: split reporter; split luciferase (luciferin living fluorescence imaging, LLFI) on N. benthamiana leaves; Luc^N and Luc^C fusions
[2] = molecular target: T2, IMPβ1:YFP^N fusion protein (Arabidopsis); experiment: split reporter; YFP BiFC in Nicotiana benthamiana leaves, confocal laser-scanning microscopy; IMPβ1 fused to YFP^N, EIN2C or EIN2N fused to YFP^C

| binding [1] | binding [2] | Binder |
| --- | --- | --- |
| binds | – | EIN2C fused to Luc^C (domain or fragment, UniProt Q9S814 454-1294) LWLAATPLKSASNRAEAQIWNMDAQNALSYPSVQEEEIERTETRRNEDESIVRLESRVKDQLDTTSVTSSVYDLPENILMTDQEIRSSPPEERELDVKYSTSQVSSLKEDSDVKEQSVLQSTVVNEVSDKDLIVETKMAKIEPMSPVEKIVSMENNSKFIEKDVEGVSWETEEATKAAPTSNFTVGSDGPPSFRSLSGEGGSGTGSLSRLQGLGRAARRHLSAILDEFWGHLYDFHGQLVAEARAKKLDQLFGTDQKSASSMKADSFGKDISSGYCMSPTAKGMDSQMTSSLYDSLKQQRTPGSIDSLYGLQRGSSPSPLVNRMQMLGAYGNTTNNNNAYELSERRYSSLRAPSSSEGWEHQQPATVHGYQMKSYVDNLAKERLEALQSRGEIPTSRSMALGTLSYTQQLALALKQKSQNGLTPGPAPGFENFAGSRSISRQSERSYYGVPSSGNTDTVGAAVANEKKYSSMPDISGLSMSARNMHLPNNKSGYWDPSSGGGGYGASYGRLSNESSLYSNLGSRVGVPSTYDDISQSRGGYRDAYSLPQSATTGTGSLWSRQPFEQFGVAERNGAVGEELRNRSNPINIDNNASSNVDAEAKLLQSFRHCILKLIKLEGSEWLFGQSDGVDEELIDRVAAREKFIYEAEAREINQVGHMGEPLISSVPNCGDGCVWRADLIVSFGVWCIHRVLDLSLMESRPELWGKYTYVLNRLQGVIDPAFSKLRTPMTPCFCLQIPASHQRASPTSANGMLPPAAKPAKGKCTTAVTLLDLIKDVEMAISCRKGRTGTAAGDVAFPKGKENLASVLKRYKRRLSNKPVGMNQDGPGSRKNVTAYGSLG |
| – | no binding | EIN2N:YFP^C fusion protein (domain or fragment, UniProt Q9S814 1-453) MEAEIVNVRPQLGFIQRMVPALLPVLLVSVGYIDPGKWVANIEGGARFGYDLVAITLLFNFAAILCQYVAARISVVTGKHLAQICNEEYDKWTCMFLGIQAEFSAILLDLTMVVGVAHALNLLFGVELSTGVFLAAMDAFLFPVFASFLENGMANTVSIYSAGLVLLLYVSGVLLSQSEIPLSMNGVLTRLNGESAFALMGLLGASIVPHNFYIHSYFAGESTSSSDVDKSSLCQDHLFAIFGVFSGLSLVNYVLMNAAANVFHSTGLVVLTFHDALSLMEQVFMSPLIPVVFLMLLFFSSQITALAWAFGGEVVLHDFLKIEIPAWLHRATIRILAVAPALYCVWTSGADGIYQLLIFTQVLVAMMLPCSVIPLFRIASSRQIMGVHKIPQVGEFLALTTFLGFLGLNVVFVVEMVFGSSDWAGGLRWNTVMGTSIQYTTLLVSSCASLCLI |
